The whole screen tested about 350,000 compounds, of which about 260 (0.074%) were called active. This list was built around the results that the source calls inconclusive (neither active nor inactive); the mix of calls is not that of the screen. Calls follow the shape of the dose curve; as a rule, active = well fitted inhibition curve with a large enough effect; inconclusive = small, poorly fitted or top-dose-only effect; inactive = no such curve, though single readings can be large or run the other way. Potencies beside an inconclusive call are fits to weak or partial responses and may not hold up.
biological target: Ferritin light chain (Equus caballus) (UniProt P02791); assay: qHTS Assay for Identification of Novel General Anesthetics; conditions: apoferritin/1-aminoanthracene competitive binding, fluorescence; activity change, negative = displacement: at 77.5 µM (top of the series); also: nearly all actives have a fitted effect of over 20% in size
UniProt P02791, sequence (P02791 whole entry, looked up): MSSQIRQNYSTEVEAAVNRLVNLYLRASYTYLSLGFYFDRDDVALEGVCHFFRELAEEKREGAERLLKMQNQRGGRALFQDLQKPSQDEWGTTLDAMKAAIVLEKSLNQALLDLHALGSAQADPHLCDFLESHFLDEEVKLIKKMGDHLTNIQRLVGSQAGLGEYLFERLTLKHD
Method in brief: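 Horse-spleen apoferritin (10 uM) in 50% saturated 1-aminoanthracene in PBS was incubated 10 min at room temperature with compound. Fluorescence (ex 380, em 535 nm) was normalized to free and bound 1-AMA, with concentration-response fitted by a four-parameter Hill equation.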
% is scaled to controls: 0 for no effect and ±100 for the full control effect; potency is read from the fitted curve at half-maximal effect; tags tell the direction and shape of the fitted curve.

Activity change, negative = displacement, inactive:
COc1ccc2nc(C)c3cc(C)oc3c2c1 -4.46%
Nc1cc(=O)nc(SCC(=O)N2CCN(c3ccccc3)CC2)n1-c1ccc(F)cc1 -8.18%
CCC(=O)Nc1ccc(NC(=O)c2oc3ccccc3c2C)cc1 42.8%
CC[C@H](C)[C@H](NC(=O)[C@H](Cc1ccc(O)cc1)NC(=O)[C@@H](NC(=O)[C@H](CCCNC(=N)N)NC(=O)[C@@H](N)CC(=O)O)C(C)C)C(=O)N[C@@H](Cc1cnc[nH]1)C(=O)N1CCC[C@H]1C(=O)N[C@@H](Cc1ccccc1)C(=O)N[C@@H](Cc1cnc[nH]1)C(=O)N[C@@H](CC(C)C)C(=O)N[C@@H](CC(C)C)C(=O)N[C@H](C(=O)N[C@@H](Cc1ccc(O)cc1)C(=O)N[C@@H](CO)C(=O)O)C(C)C -16.1%
N#CC1=C(N)OC2=C(C(=O)CC(c3ccccc3)C2)C1c1ccoc1 (stereo unspecified) 6.86%
CCc1c(C)c2ccc(OCC(=O)N(C)C)c(C)c2oc1=O -12.8%
O=C(Nc1ccc(Cl)cn1)C1COc2ccccc2O1 (stereo unspecified) -18.6%
CCOc1ccccc1OCCOCCN1CCN(Cc2ccccc2)CC1 -6.38%
Cc1ccc(N2N=C(c3ccc(F)cc3)CC2c2ccco2)cc1 (stereo unspecified) 84.3%
N#Cc1c(N)nc(N)nc1Nc1ccc(Br)cc1 -5.26%
O=C(CCN1C(=O)C2C3C=CC(C4CC34)C2C1=O)Oc1cccc2cccnc12 (stereo unspecified) -22.7%
O=C(CSc1nc2nc(-c3cccs3)cc(C(F)(F)F)c2c(=O)[nH]1)NCc1ccco1 73.6%
Cc1csc(NS(=O)(=O)c2cccc([N+](=O)[O-])c2)n1 -11.1%
O=C(CC(=O)c1cc(Cl)ccc1O)c1ccccc1 -9.75%
O=C(c1cccc(C(F)(F)F)c1)C1CCCN(Cc2cccn2-c2ncccn2)C1 (stereo unspecified) -22.3%

Potency, inconclusive:
CNC(=O)c1sccc1SCc1c(Cl)cccc1Cl 22.4 µM [inhibitor, partial curve]
O=C(COc1ccccc1)NCC(=O)N/N=C/c1ccc(Cl)cc1 14.1 µM [inhibitor, partial curve]
Oc1ccccc1CNc1ccc(OC(F)(F)F)cc1 25.1 µM [inhibitor, partial curve]
O=C(CSc1nnc(-c2cccnc2)n1Cc1ccco1)c1ccc2ccccc2c1 28.2 µM [inhibitor, partial curve, poor fit]
Cc1ccc(C(=O)CSc2nc3ccccc3o2)cc1 56.2 µM [inhibitor, partial curve]
CC(CC(=O)Nc1ccc(Cl)c([N+](=O)[O-])c1)c1ccccc1 (stereo unspecified) 39.8 µM [inhibitor, partial curve]
O=C(NC(=S)Nc1ccccc1N1CCCCC1)c1cccs1 31.6 µM [inhibitor, partial curve]
COc1ccc(OC)c(C2C3=C(N=C4SCC(=O)N42)c2ccccc2CC3)c1 (stereo unspecified) 11.2 µM [inhibitor, partial curve]
N/C(=N\OC(=O)COc1ccc(Cl)cc1Cl)c1ccccn1 15.8 µM [inhibitor, partial curve]
CCCCCC(=O)Nc1ccc(-c2csc(N)n2)cc1 50.1 µM [inhibitor, single point]
COc1ccc(OCCCC(=O)NC(C)c2ccccc2)cc1 (stereo unspecified) 44.7 µM [inhibitor, single point]
CN(Cc1ccccc1Cl)C(=O)c1cc2ccccc2o1 31.6 µM [inhibitor, single point]
COc1cccc(C(=O)NC(=S)Nc2ccccc2N2CCOCC2)c1 28.2 µM [inhibitor, single point]
CC(=O)c1cccc(NC(=O)N2CCc3ccccc3C2)c1 35.5 µM [inhibitor, partial curve]
Cc1ccccc1CN1CCNC(=O)C1CC(=O)NCCC1=CCCCC1 (stereo unspecified) 39.8 µM [inhibitor, partial curve]
O=[N+]([O-])c1cc2c(cc1Br)CCN2 25.1 µM [inhibitor, partial curve]
CCOC(=O)C1=C(Cn2cnc3ccccc32)NC(=O)NC1c1cc(C)ccc1C (stereo unspecified) 56.2 µM [inhibitor, single point]
N#C/C(C(N)=O)=c1/ccc2c(c1)N1C3=C(CCCC3)CC3CCCCC31N=2 (stereo unspecified) 4.47 µM [inhibitor, full curve]
Cc1nn(-c2ccccc2)c2c1C(c1cccnc1)N1C=C(S(=O)(=O)N3CCCCC3)C=CC1=N2 (stereo unspecified) 44.7 µM [inhibitor, single point]
COC(=O)c1ccc(NC(=S)NC2CCc3ccccc32)cc1 (stereo unspecified) 39.8 µM [inhibitor, single point]
Cc1ccc(C(=O)Oc2ccc(/C=C3\C(=N)N4N=C(N5CCOCC5)SC4=NC3=O)cc2)cc1 11.2 µM [inhibitor, full curve, poor fit]
COc1cc(/C=N/N(C)c2ccccc2)ccc1O 28.2 µM [inhibitor, single point]
Cc1ccc(S(=O)(=O)c2nc(NN(C)C)sc2Cl)cc1 20 µM [inhibitor, partial curve]
COc1ccccc1NCC(O)COc1ccc(C(C)(C)C)cc1 (stereo unspecified) 22.4 µM [inhibitor, partial curve]
O=C(CCC(=O)Nc1ccccc1Cl)NN=C1CCCC1 12.6 µM [inhibitor, partial curve]
CN1CC(=O)N(CC(=O)Nc2ccc(Cl)c(C(F)(F)F)c2)C1=O 39.8 µM [inhibitor, single point]
CCc1ccc(-c2[nH]c3c(c2-c2sc(C)c(C(=O)OC)c2O)c(=O)[nH]c(=O)n3C)cc1 3.55 µM [inhibitor, full curve, poor fit]
CCN(CC)c1ccc(NC(=O)COC(=O)c2ccc3ccccc3n2)cc1 31.6 µM [inhibitor, partial curve]
O=C(NCc1ccccc1)c1cc2nc(C3CC3)cc(C(F)(F)F)n2n1 25.1 µM [inhibitor, partial curve]
COC(=O)CSC1=C(C#N)C(c2ccc(C(C)C)cc2)CC(=O)N1 (stereo unspecified) 28.2 µM [inhibitor, partial curve]
C/C(=N/NC(=O)CNC(=O)COc1ccccc1)c1ccc(Cl)cc1 44.7 µM [inhibitor, single point]
FC(F)(F)c1cccc(NCc2cn3cccnc3n2)c1 35.5 µM [inhibitor, partial curve]
COc1ccc(-c2cc(C(F)(F)F)nc(SCCC(=O)Nc3cc(C)ccc3O)n2)cc1 7.08 µM [inhibitor, partial curve]
c1cc2cn[nH]c2cc1NC1CCCCCC1 50.1 µM [inhibitor, single point]
Cc1nnc(SCc2ccc3c(c2)OCO3)s1 17.8 µM [inhibitor, partial curve]
O=C(Cc1ccc(Br)cc1)N/N=C/c1cccnc1 56.2 µM [inhibitor, single point]
COc1cc(C(N)=O)ccc1OCc1ccccc1 20 µM [inhibitor, partial curve]
Cc1cc(C)cc(NC(=O)CSc2nnc(-c3ccccc3)n2N)c1 5.62 µM [inhibitor, full curve]
COC(=O)C1C(=O)OC(C)(C)C1C(C)C(=O)c1ccc(C)cc1C (stereo unspecified) 22.4 µM [inhibitor, partial curve]
Cn1c(SCc2c(Cl)cccc2Cl)nnc1-c1cccs1 14.1 µM [inhibitor, partial curve]
Cc1ccc(-c2nc(SCC(=O)N(C)C3CCS(=O)(=O)C3)[nH]c2-c2ccc(C)cc2)cc1 (stereo unspecified) 28.2 µM [inhibitor, single point]
COc1cccc(NC(=O)NCc2ccccc2F)c1 35.5 µM [inhibitor, single point]
O=C(NCc1ccc(OC(F)(F)F)cc1)C1CC(c2ccccc2[N+](=O)[O-])=NO1 (stereo unspecified) 22.4 µM [inhibitor, partial curve]
COc1ccc(N2CCN(C(=O)c3cc(-c4cc(OC)ccc4OC)nc4ccccc34)CC2)cc1 7.94 µM [inhibitor, partial curve]
O=C(Nc1ccccn1)C12CC3CC(CC(C3)C1)C2 17.8 µM [inhibitor, partial curve]
CCCCCc1ccc(OCCOCCn2c[n+](C)c3ccccc32)c(CCCCC)c1 28.2 µM [inhibitor, partial curve]
Cc1ccc(CS(=O)(=O)c2ncc(Cl)c(C(=O)Nc3nc4ccc(C)cc4s3)n2)cc1 39.8 µM [inhibitor, partial curve]
Cc1cc(C(=O)OCC(=O)Nc2ccccc2F)c(C)o1 35.5 µM [inhibitor, partial curve]
CCOC(=O)CN1C(=O)Nc2ccc(Br)cc2C1c1ccccc1 (stereo unspecified) 25.1 µM [inhibitor, partial curve]
CC(O)CNCCCCOc1ccc(OCc2ccccc2)cc1 (stereo unspecified) 22.4 µM [inhibitor, partial curve]
CCOC(=O)c1sc(=S)n(-c2ccc3c(c2)OCO3)c1N 31.6 µM [inhibitor, partial curve]

— PubChem BioAssay AID485281 (National Center for Advancing Translational Sciences (NCATS), 2010)
